Results published in PubChem BioAssay AID445 (National Center for Advancing Translational Sciences (NCATS), 2006).
Among all 110,000 compounds or so, about 40 (0.04%) were called active. Inconclusive results, whose numbers are uncertain, are shown with a selection of clear calls. The call rests on the fitted dose curve; in most records, active means well fitted curve in the direction sought with a large enough effect in the signal ratio (not every such curve was filed as active); inconclusive means small, poorly fitted or top-dose-only effect, or a change in a side signal; inactive means flat fitted curve, though single readings scatter; the % refers to the signal ratio. Potencies beside an inconclusive call are fits to weak or partial responses and may not hold up.
Potency means the concentration at half of the fitted maximal effect.

Assay: IkB Signaling;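 on IkBa stabilization activation: 0% = basal untreated cells and 100% = reference inhibitor full response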
Settings: ABC-DLBCL IkBa-CBG/CBR dual luciferase ratio (green luciferase fused to IkBa over red control in OCI-Ly3 lymphoma cells), 4 h; IkBa stabilization activation: at 57.1 µM (top of the series), scaled: untreated 0%, proteasome inhibitor 100% unless noted
Procedure, shortened: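 Curves were fitted separately to fusion (green), unfused (red) and ratio luminescence, then classed by r2, magnitude and activity. Cells: OCI-Ly3, 4 h compound plus doxycycline at 37C; 10 uM MG-132 defined full response.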
In the case of `CC1CN(c2nc3c(c(=O)n(Cc4ccc(Cl)cc4)c(=O)n3C)n2C)CC(C)O1` (stereo unspecified), the IkBa stabilization activation was inconclusive: 2.11% [signal inhibitor]. With `CCc1ccc(CNC(=O)CCCN2C(=O)CCn3nc(-c4cccn4C)cc32)cc1` the IkBa stabilization activation was inconclusive: 2.65% [signal inhibitor]. In the case of `CC(C)CCN(Cc1ccco1)C(=O)c1cc2c(s1)-c1ccccc1OC2`, the IkBa stabilization activation was inconclusive: -1.43% [signal inhibitor]. In the case of `CCOC(=O)c1oc2ccc(Br)cc2c1CSc1nnc(C)s1`, the “IkBa stabilization activation” value was inactive: 0.937%. In the case of `COc1ccccc1N1CCN(C(=O)c2cn(CC(C)C)c(=O)c3c2c2ccccc2n3C)CC1`, the IkBa stabilization activation was inconclusive: 7.64% [signal inhibitor]. With `O=C(NCc1ccc2c(c1)OCO2)c1ccc(NC(=O)C2CCCO2)cc1` (stereo unspecified) the “IkBa stabilization activation” value was inactive: 2%. For `NC(=O)C1(N2CCCCC2)CCN(CC(=O)Nc2ccccc2-c2ccccc2)CC1`, the Potency was inconclusive: 20 µM [signal inhibitor, partial curve]. For `CCCOc1ccc(NC(=O)CC2C(=O)N(c3cccc(OC)c3)C(=O)N2Cc2cccs2)cc1` (stereo unspecified), the IkBa stabilization activation was inconclusive: 4.67% [signal inhibitor]. In the case of `Cc1nc2ccn(Cc3ccccc3)c(=O)c2cc1C(=O)N1CCN(c2ccccc2F)CC1`, the IkBa stabilization activation was inconclusive: 0.926% [signal inhibitor]. In the case of `Cc1cc(F)ccc1S(=O)(=O)Nc1ccc2oc3c(c2c1)CC(C)CC3` (stereo unspecified), the IkBa stabilization activation was inconclusive: -1.77% [signal inhibitor]. With `COc1cc(OC)cc(-c2cc3nc(C)c(CCC(=O)NCc4ccccc4)c(C)n3n2)c1` the Potency was inconclusive: 5.01 µM [signal inhibitor]. In the case of `CCc1nc2sc3c(c2c(=O)n1N)CCC3`, the “IkBa stabilization activation” value was inactive: -2.41%. For `CC(C)c1ccc(NC(=O)c2ccc3c(c2)CCN3S(=O)(=O)c2ccccc2)cc1`, the “IkBa stabilization activation” value was inactive: -1.84%. In the case of `CCOC(=O)c1c(NC(=O)c2ccoc2C)sc2c1CCC2`, the “IkBa stabilization activation” value was inactive: 1.69%. For `Cc1cc(C)c(S(=O)(=O)Nc2cccc(C(F)(F)F)c2)c(C)c1`, the IkBa stabilization activation was inconclusive: 1.51% [signal inhibitor]. With `CCOC(=O)c1c(-c2ccc(C)o2)csc1NC(=O)CSc1nncs1` the IkBa stabilization activation was inconclusive: 3.36% [signal inhibitor]. With `CCOc1ccccc1CNC(=O)C1CCN(S(=O)(=O)c2ccc3[nH]c(=O)ccc3c2)CC1` the IkBa stabilization activation was inconclusive: 3.31% [signal inhibitor]. In the case of `CCN(CC(=O)Nc1c(C(=O)OC)[nH]c2ccc(C)cc12)c1ccc2c(c1)OCO2`, the IkBa stabilization activation was inconclusive: -0.984% [signal inhibitor]. In the case of `COc1ccc(C2C(C#N)=C(N)N3C(=C2C#N)Sc2ccccc23)cc1` (stereo unspecified), the IkBa stabilization activation was inconclusive: 17% [signal inhibitor]. With `Clc1ccc(OCc2nn3c(C4CCCCC4)nnc3s2)cc1` the IkBa stabilization activation was inconclusive: 8.62% [signal inhibitor]. With `CCNC(=O)c1nc[nH]c1C(=O)NCC` the “IkBa stabilization activation” value was inactive: 0.536%. In the case of `COc1ccccc1NC(=O)CSC1=Nc2ccccc2C2=NC(CCC(=O)NCCc3ccccc3)C(=O)N12` (stereo unspecified), the IkBa stabilization activation was inconclusive: 4.13% [signal inhibitor]. With `O=C(Nc1nc2c(s1)CCCCCC2)Nc1ccc(F)cc1F` the IkBa stabilization activation was inconclusive: -0.536% [signal inhibitor]. For `O=C1NC(=O)[C@@H]2C3c4ccccc4C=CN3[C@H](C(=O)c3cccs3)[C@H]12` (stereo partly specified), the “IkBa stabilization activation” value was inactive: 8.51%. In the case of `Cc1ccc(C(=O)N2CCc3cc(CNS(=O)(=O)c4cccs4)ccc32)cc1`, the IkBa stabilization activation was inconclusive: 0.324% [signal inhibitor]. For `O=C(COc1c(F)c(F)c(C(F)(F)F)c(F)c1F)Nc1ccc(N2CCOCC2)c(Cl)c1`, the IkBa stabilization activation was inconclusive: -0.45% [signal inhibitor]. For `CCCCn1c(SCC(=O)Nc2cc(NC(=O)c3ccco3)ccc2C)nc2ccccc2c1=O`, the IkBa stabilization activation was inconclusive: 8.48% [signal inhibitor]. With `O=C(Nc1ccc(Oc2ccccc2)cc1)C1CCN(S(=O)(=O)c2ccc(Cl)cc2)CC1` the IkBa stabilization activation was inconclusive: 12.8% [signal inhibitor]. In the case of `Oc1ccc(-c2csc(NCc3ccco3)n2)cc1`, the “IkBa stabilization activation” value was inactive: 0.868%. In the case of `CCOC(=O)c1cc(S(=O)(=O)NCc2ccc(C)cc2)[nH]n1`, the IkBa stabilization activation was inconclusive: -0.955% [signal inhibitor]. In the case of `O=S(=O)(c1ccc(Cl)cc1)c1nc(-c2ccco2)oc1SCc1ccc(F)cc1`, the IkBa stabilization activation was inconclusive: -1.12% [signal inhibitor]. With `COc1ccc(CCN2C(=O)c3[nH]nc(-c4ccccc4O)c3C2c2ccc(OC)cc2)cc1` (stereo unspecified) the “IkBa stabilization activation” value was inactive: -2.33%. In the case of `COC(=O)c1ccc(NC(=O)c2ccc(CN3CCOCC3)cc2)cc1`, the “IkBa stabilization activation” value was inactive: 3.36%. In the case of `N#CC1=C2SCN(c3ccccc3)CN2C(=O)CC1c1c(Cl)cccc1Cl` (stereo unspecified), the Potency was inconclusive: 31.6 µM [rising, partial curve]. For `COc1ccc(-n2c(=O)c3ccccc3n(CC(=O)Nc3ccccc3OC)c2=O)cc1`, the IkBa stabilization activation was inconclusive: 5.21% [signal inhibitor]. In the case of `c1ccc2c(c1)CCCC2NC1=NCCC1` (stereo unspecified), the “IkBa stabilization activation” value was inactive: -0.0506%. For `CC(=O)c1ccc(NC(=O)c2cnn(-c3cccc(F)c3)c2-n2cccc2)cc1`, the IkBa stabilization activation was inconclusive: 1.35% [signal inhibitor]. In the case of `O=c1cc(-c2ccccc2)oc2c1ccc1ccccc12`, the IkBa stabilization activation was inactive: -0.469% [at 11.4 µM, scaled: untreated 0%, proteasome inhibitor 100%]. With `COc1ccc(NC(=O)CSc2nc(-c3ccc(F)cc3)[nH]c2-c2ccc(C)cc2)cc1OC` the IkBa stabilization activation was inconclusive: 16.9% [signal inhibitor]. For `Cc1ccc(CNC(=O)c2cc(C)nc3c2c(C)nn3-c2ccc(C)cc2)cc1`, the IkBa stabilization activation was inconclusive: 1.41% [signal inhibitor]. In the case of `CCc1ccc(NC(=O)CC2C(=O)N(c3cccc(OC)c3)C(=O)N2C2CCCC2)cc1` (stereo unspecified), the “IkBa stabilization activation” value was inactive: 2.78%. With `Nc1ccc2c(c1)COc1ccccc1O2` the “IkBa stabilization activation” value was inactive: 0.366%. For `c1ccc2c(c1)nc(-c1ccncc1)n1nnnc21`, the IkBa stabilization activation was inconclusive: 2.6% [signal inhibitor]. For `CCn1c(=N)n(CC(O)COc2cccc(C)c2)c2ccccc21` (stereo unspecified), the “IkBa stabilization activation” value was inactive: 1.25%. In the case of `O=C(Nc1ccccc1N1CCOCC1)c1ccc2ccccc2n1`, the “IkBa stabilization activation” value was inactive: -2.87%. For `COc1ccc(-c2cc(C(F)(F)F)n3ncc(C(=O)NCC4CCCO4)c3n2)cc1` (stereo unspecified), the “IkBa stabilization activation” value was inactive: 0.774%. With `CCCCCOC(=O)CSc1ncnc2sc3c(c12)CCC(C)C3` (stereo unspecified) the IkBa stabilization activation was inconclusive: 6.3% [signal inhibitor]. In the case of `COCCCN1C(=O)c2[nH]nc(-c3ccccc3O)c2C1c1cccc(Cl)c1` (stereo unspecified), the IkBa stabilization activation was inconclusive: -0.981% [signal inhibitor]. For `Cc1ccc2nc3sc(C(=O)NCCCN(C)c4ccccc4)cc3cc2c1`, the IkBa stabilization activation was inconclusive: 1.59% [signal inhibitor]. For `Clc1ccc(-c2nc(-c3ccccn3)no2)cc1Cl`, the IkBa stabilization activation was inconclusive: 8.86% [signal inhibitor]. With `COc1ccccc1CNC(=O)CCC1N=C2c3ccccc3N=C(SCc3ccc(C)cc3C)N2C1=O` (stereo unspecified) the IkBa stabilization activation was inconclusive: -0.0583% [signal inhibitor]. With `COc1ccc(NC(=O)CN(c2cc(C)cc(C)c2)S(=O)(=O)c2c(C)noc2C)cc1Cl` the IkBa stabilization activation was inconclusive: 0.0129% [signal inhibitor]. For `Fc1cccc(-n2ncc3c2ncn2nc(Cc4ccccc4)nc32)c1`, the “IkBa stabilization activation” value was inactive: -2.06%. For `CC(C)(C)C1CCc2nc(NC(=O)Cc3cn4ccsc4n3)sc2C1` (stereo unspecified), the IkBa stabilization activation was inconclusive: 1.77% [signal inhibitor]. With `COc1ccc(-c2nc(SCC(=O)Nc3ccc4c(c3)OCCO4)c(-c3ccc(C)cc3)[nH]2)cc1OC` the IkBa stabilization activation was inconclusive: 2.05% [signal inhibitor]. With `Cc1ccccc1Nc1c(-c2ccc(N3CCOCC3)cc2)nc2ccccn12` the IkBa stabilization activation was inconclusive: 4.17% [signal inhibitor]. With `Cc1ccc(CNC(=O)CN2C(=O)COc3ccc(S(=O)(=O)Nc4ccccc4)cc32)cc1` the IkBa stabilization activation was inconclusive: 0.699% [signal inhibitor]. In the case of `c1ccc(-c2cc(-c3nn4c(-c5ccco5)nnc4s3)c3ccccc3n2)cc1`, the IkBa stabilization activation was inconclusive: 2.06% [signal inhibitor]. For `CCOC(=O)CSc1nc2c(c(=O)n1-c1ccc(OCC)cc1)SCC2`, the “IkBa stabilization activation” value was inactive: -0.0235%. For `CCCCNC(=O)c1ccc2c(c1)ncn2-c1cc(OC)ccc1OC`, the “IkBa stabilization activation” value was inactive: -2.25%. For `O=C(Nc1ccccc1F)c1ccc2c(Cl)c3c(nc2c1)CCC3`, the Potency was inconclusive: 3.98 µM [signal inhibitor, partial curve]. In the case of `CCOc1ccccc1CNCc1cccn1-c1nnc(N2CCN(c3ccccc3)CC2)s1`, the IkBa stabilization activation was inconclusive: -0.11% [signal inhibitor]. For `O=C(c1noc2c1CCCC2)N1CCN(C(c2ccccc2)c2ccccc2)CC1`, the IkBa stabilization activation was inconclusive: 14.6% [signal inhibitor]. In the case of `Cc1ccc2nc(NC(=O)CSc3nc4c(c(=O)n3C)SC(C)C4)sc2c1` (stereo unspecified), the IkBa stabilization activation was inconclusive: 4.96% [signal inhibitor]. In the case of `COc1ccccc1NC(=O)CN1CCN(c2ccc(Cl)cc2)CC1`, the IkBa stabilization activation was inconclusive: 4.34% [signal inhibitor]. In the case of `NC(=O)c1oc2ccc(Cl)cc2c1N`, the IkBa stabilization activation was inconclusive: 3.96% [signal inhibitor]. With `COc1ccc(S(=O)(=O)Nc2ccc(-c3cn4c(C)csc4n3)cc2)cc1` the IkBa stabilization activation was inconclusive: 2.02% [signal inhibitor]. In the case of `COc1ccc(-n2ncc3c(NC4CCCC4)ncnc32)cc1`, the “IkBa stabilization activation” value was inactive: -0.84%. For `C=C1C(=O)O[C@H]2C[C@@]3(C)CCCC(=C)[C@@H]3C[C@H]12`, the IkBa stabilization activation was inactive: 4.42% [at 11.4 µM, scaled: untreated 0%, proteasome inhibitor 100%]. For `COc1ccccc1S(=O)(=O)Cc1ccc(C(=O)NCc2ccc(Cl)cc2)o1`, the IkBa stabilization activation was inconclusive: 1.57% [signal inhibitor]. For `CN(C)CCNC(=O)C1CCN(Cc2cc3ccccc3n2Cc2ccccc2)CC1`, the “IkBa stabilization activation” value was inactive: -1.97%.
